Source: paper PMC4336329 (PLoS ONE, 2015)
Screen size: about 310,000 compounds; about 2,200 (0.71%) showed an effect of 50% or more. The effect is printed as a negative number. Some of the results follow.

Target: human ether-à-go-go-related gene (hERG) potassium channel (human, UniProt Q12809)
Assay: primary screen, population patch clamp on CHO cells stably expressing hERG

Chain of human ether-à-go-go-related gene (hERG) potassium channel (Q12809 whole entry, looked up): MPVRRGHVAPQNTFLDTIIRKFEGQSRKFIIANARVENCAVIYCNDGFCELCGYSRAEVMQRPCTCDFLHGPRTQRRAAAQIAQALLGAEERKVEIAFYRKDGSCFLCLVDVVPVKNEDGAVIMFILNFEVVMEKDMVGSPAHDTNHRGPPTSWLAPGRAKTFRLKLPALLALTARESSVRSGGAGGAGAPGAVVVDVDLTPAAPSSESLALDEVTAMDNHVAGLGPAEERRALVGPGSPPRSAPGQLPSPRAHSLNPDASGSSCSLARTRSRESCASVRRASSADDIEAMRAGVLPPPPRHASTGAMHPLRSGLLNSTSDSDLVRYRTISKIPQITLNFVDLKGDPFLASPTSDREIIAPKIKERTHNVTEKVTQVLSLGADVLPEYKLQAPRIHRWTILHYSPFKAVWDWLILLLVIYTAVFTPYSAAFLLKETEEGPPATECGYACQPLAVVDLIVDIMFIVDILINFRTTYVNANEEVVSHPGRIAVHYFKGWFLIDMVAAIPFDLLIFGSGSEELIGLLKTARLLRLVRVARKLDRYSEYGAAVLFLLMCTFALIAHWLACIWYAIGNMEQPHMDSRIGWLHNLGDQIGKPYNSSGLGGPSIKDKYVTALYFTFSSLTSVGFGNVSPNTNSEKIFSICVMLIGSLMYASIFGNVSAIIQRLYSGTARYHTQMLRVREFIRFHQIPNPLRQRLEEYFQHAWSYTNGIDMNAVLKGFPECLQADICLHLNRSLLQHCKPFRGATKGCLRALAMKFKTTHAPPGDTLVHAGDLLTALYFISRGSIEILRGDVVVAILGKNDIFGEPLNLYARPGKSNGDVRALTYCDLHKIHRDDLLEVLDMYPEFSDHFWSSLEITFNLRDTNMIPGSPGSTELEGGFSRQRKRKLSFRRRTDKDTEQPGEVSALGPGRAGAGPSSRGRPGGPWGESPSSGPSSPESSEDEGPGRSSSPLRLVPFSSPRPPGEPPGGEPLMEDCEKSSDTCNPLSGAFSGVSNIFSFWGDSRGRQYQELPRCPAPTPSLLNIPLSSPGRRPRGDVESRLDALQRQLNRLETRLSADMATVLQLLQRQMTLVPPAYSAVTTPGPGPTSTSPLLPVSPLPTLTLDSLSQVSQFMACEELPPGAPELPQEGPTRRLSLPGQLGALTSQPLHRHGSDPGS

| Structure (SMILES) | hERG current change (%, negative = inhibition) at 1uM [%] |
| --- | --- |
| N#CC1=C(S)N(c2ccccc2)C(c2ccc(-c3ccc(Cl)c(Cl)c3)o2)NC1=O (stereo not drawn) | -2.47 |
| Cc1ccc(NC(=O)CN(C)S(=O)(=O)c2cnc[nH]2)c(C)c1 | 15.6 |
| Clc1ccc(CSc2nnc(/C=C/c3ccccc3)o2)cc1 | -0.973 |
| Cc1cccc(N2CCN(C(=O)COc3ccc4c(C)cc(=O)oc4c3C)CC2)c1C | 15.2 |
| O=C(NNC(=O)c1cccs1)c1ccc(Cl)c(Cl)c1 | 13.1 |
| Cc1ccc(C2CC(c3cccs3)=NN2C(=O)CSC2=NCCS2)cc1 (stereo not drawn) | 2.27 |
| CSc1c(SCc2ccccc2)cnn(-c2ccccc2)c1=O | 10.8 |
| COc1ccc(OC)c(C(=O)CSc2nnc(-c3cccnc3)n2C)c1 | 6.98 |
| CC(C)=CCCC(C)CN1CCC(n2nccc2NC(=O)c2ccccc2)CC1 (stereo not drawn) | -52.2 |
| Cn1c(NC2CCCCC2)c(N=O)c(=O)n(C)c1=O | 12.8 |
| Cc1cc(Br)ccc1NC(=O)C1CCCO1 (stereo not drawn) | 8.71 |
| Cc1nnc(-c2ccccc2)c(=O)n1/N=C/c1c(O)ccc2ccccc12 | 8.19 |
| Cc1cc(NC(=O)Cn2ccsc2=N)c([N+](=O)[O-])cc1C.Cl | 3.03 |
| CC(C)C[C@H](NC(=O)c1[nH]cnc1C(=O)N[C@@H](C)c1ccccc1)C(=O)OCc1ccccc1 | 17.3 |
| CNC(=O)ON(C(=O)NC)C1N(C)C(=S)SC1(C)C (stereo not drawn) | 0.943 |
| O=C(c1ccco1)N(Cc1ccc(Cl)cc1)Cc1ccco1 | 5.4 |
| Cc1[nH]n(-c2ccccc2)c(=O)c1C=NCC1CCCO1 (stereo not drawn) | 12.2 |
| Cc1ccc(NC(=O)N2CCN(C/C=C/c3ccccc3)CC2)cc1 | -10.7 |
| CC(O)[C@H]1CNCCN1CCc1cccc2ccccc12 (stereo partly drawn) | 5.81 |
| CC1CCN(S(=O)(=O)c2ccc(NC(=O)CSc3nnnn3C)cc2)CC1 | 2.79 |
| O=C(Nc1nnc(Cc2ccccc2F)s1)c1ccccc1Cl | 16.8 |
| Cc1cc(C)nc(SCC(=O)c2cc3ccccc3oc2=O)n1 | -0.0354 |

| Structure (SMILES) | hERG current change (%, negative = inhibition) at 1uM [%] |
| --- | --- |
| CN(C)C(=O)COc1ccc2c(-c3ccccc3)cc(=O)oc2c1 | 14.7 |
| CCCCOc1ccc(C(=O)NCCOc2cccc(OC)c2)cc1 | 9.19 |
| CN(C)S(=O)(=O)c1ccc(NC(=O)CCNC(=O)c2ccco2)cc1 | 15.4 |
| Cc1ccc(C2OC(=O)c3ccccc32)cc1 (stereo not drawn) | 2.46 |
| CS(=O)(=O)N1CC2CCCN2c2cc(C(F)(F)F)ccc21 (stereo not drawn) | 11.7 |
| CCn1c(COc2c(C)cccc2C)nnc1SCC(=O)N1CCN(c2ccccc2)CC1 | 0.756 |
| COc1ccc(CN=C(NS(=O)(=O)c2cccs2)SC)cc1 | 2.29 |
| COc1ccc(CCNC(=O)COC(=O)C2CC2C)cc1OC (stereo not drawn) | 11.1 |
| COc1cccc(C=NCCNC(=O)c2nonc2N)c1O | 11.4 |
| COc1cc(C(=O)N/N=C/c2ccc(OC(=O)c3ccccc3Cl)c(OC)c2)ccc1O | 12.8 |
| O=C(Nc1nccs1)c1cn(-c2ccccc2)nc1-c1ccccc1 | -3.21 |
| Br.CC(=O)Nc1ccc(-c2csc(N/N=C(/C)c3ccccc3)n2)cc1 | 12.4 |
| CCn1c(=O)c(C(=O)CN2CCN(Cc3ccc4c(c3)OCO4)CC2)c(N)n(Cc2ccccc2)c1=O | -67.4 |
| Cc1ccc(-c2csc(NC(=O)CSc3nc(C)cc(=O)[nH]3)n2)cc1 | 7.59 |
| CC(C)NC(=O)C(OC(=O)c1ccccc1)C(OC(=O)c1ccccc1)C(=O)O (stereo not drawn) | 8.39 |
| CC(C)C(c1nnnn1Cc1ccco1)N1CCC(C(N)=O)CC1 (stereo not drawn) | 9.29 |
| O=C(C#Cc1ccccc1)Nc1cccc(F)c1 | 7.19 |
| CCCc1cc(=O)[nH]c(SCC)n1 | 6.87 |
| O=C(Cc1cccs1)N1CCN(c2nc(-c3ccc(Cl)cc3)cs2)CC1 | -6.46 |
| CN(c1ccccc1C(=O)NCc1ccco1)S(C)(=O)=O | 14.3 |
| COc1cc(Cl)c(C)cc1N1C(=O)CN(Cc2ccccc2)C1=S | 11.8 |
| CC(C)C[C@H](NC(=O)C1CC(=O)N(c2ccc(F)cc2)C1)C(=O)N1CCCCC1 (stereo partly drawn) | 3.74 |

| Structure (SMILES) | hERG current change (%, negative = inhibition) at 1uM [%] |
| --- | --- |
| Cc1cc(=O)oc2cc(OCC(=O)Nc3nnc(C4CC4)s3)ccc12 | 7.3 |
| CC(=O)c1ccc(-c2ccc(C(=O)NC3CCCCCC3)o2)cc1 | 29.5 |
| Nc1nnc(SCc2ccc(F)cc2Cl)s1 | 5.16 |
| CC1CCN(C(=O)CN2C(=O)C(C)(C)Oc3ccc(C(=O)NC4CCCC4)cc32)CC1 | 8.66 |
| O=c1[nH]c(=O)n(C2CCCCC2)c(O)c1/C=C/C=Nc1ccccc1 | 12.4 |
| CC1(C)CC(=O)C(C(c2ccc(Br)cc2)C2C(=O)CC(C)(C)CC2=O)C(=O)C1 | 10.5 |
| CC1CCN(CC(O)Cn2c3ccccc3c3ccccc32)CC1 (stereo not drawn) | 8.86 |
| COc1c2ccccc2c(OC)c2ccccc12 | 6.1 |
| Cc1ccc(C2C(=O)c3ccccc3C2=O)cc1 | 11.2 |
| O=C(COC(=O)Cc1ccccc1)Nc1cccnc1Cl | 6.4 |
| COc1cc(C(=S)N2CCOCC2)ccc1OC(=O)c1cccc(C)c1 | 8.75 |
| Cc1cc(C(=O)NNC(=O)c2sccc2C)c(C)o1 | 14.2 |
| COC(=O)N1C(=O)[C@](c2ccccc2)(C2CCCCC2)N1C(=O)OC | 10.6 |
| COCCn1c(SCC(=O)Nc2ccccc2C)nc2c(oc3ccccc32)c1=O | 10.3 |
| CC1CCCN(S(=O)(=O)c2cnc[nH]2)C1 (stereo not drawn) | 16.6 |
| Cc1ccc(/C=N/NC(=O)C(c2ccncc2)N2CCOCC2)cc1 (stereo not drawn) | 19.6 |
| CC(NC(=O)OCc1ccccc1)C(=O)NCC1CCCO1 (stereo not drawn) | 15.2 |
| CC(/C=C/c1ccccc1)=N\Nc1nc2c(c(=O)[nH]c(=O)n2C)n1CCO | 13.1 |
| CSCC(=O)N1CCc2ccc(NC(=O)c3ccccc3Cl)cc2C1 | 11.5 |
| CC1(C)Oc2ccc3ccc(=O)oc3c2C(/C=N/O)=C1Cl | 13.5 |
| CC(C)N(C(=O)Cn1cc(SCC(=O)N2CCCC2)c2ccccc21)C(C)C | -2.17 |
| CC(C)N(Cc1nc(-c2ccccc2)no1)C(=O)CN1C(=O)c2ccccc2C1=O | -9.32 |

| Structure (SMILES) | hERG current change (%, negative = inhibition) at 1uM [%] |
| --- | --- |
| COc1ccc2c(c1)OC[C@H]1[C@H]2N2C(=O)CN(Cc3ccco3)C(=O)[C@@]2(C)[C@H]1c1ccccc1 | 21.2 |
| CC(=O)N(CCCCN1C(=O)c2ccccc2C1=O)c1ccc(C)cc1 | -4.21 |
| Oc1cccc(/C=N/N2CCN(C3c4ccccc4-c4ccccc43)CC2)c1 | 14.6 |
| O=C(CSc1ccc2nnc(-c3ccc(F)cc3)n2n1)N1CCCc2ccccc21 | 1.84 |
| CCn1cc(/C=C(\NC(=O)c2ccccc2F)C(=O)NCCCN2CCOCC2)c2ccccc21 | 1.87 |
| CCN(CC)S(=O)(=O)c1cc(NC(=O)C(C)N(C)CC(=O)Nc2c(C)cccc2C)ccc1C (stereo not drawn) | 3.31 |
| CC(NS(=O)(=O)c1ccc(OCC(=O)NCc2cccnc2)cc1)c1ccccc1 (stereo not drawn) | 10.6 |
| C#CCOCCOCCOCCNc1nc(N2CCN(C(=O)[C@H](CCC(=O)O)n3cc(C(N)Cc4ccc(O)cc4)nn3)CC2)nc(N2CCN(C(=O)[C@H](Cc3cc4ccccc4[nH]3)n3cc(C(N)CC(C)C)nn3)CC2)n1.Cl (stereo partly drawn) | 7.46 |
| O=C(NC1CCCCCC1)c1ccc(Cl)c(S(=O)(=O)N2CCOCC2)c1 | -7.39 |
| COc1cccc(CC(NC(C)=O)C(=O)NC2CCN(c3ncccc3[N+](=O)[O-])CC2)c1 (stereo not drawn) | 18.6 |
| COC(=O)c1ccc(COC(=O)c2cc3ccccc3oc2=O)cc1 | 16.1 |
| COc1ccc(C2(c3ccc(OC)cc3)NC(=O)N(CC(=O)Nc3ccccc3C(F)(F)F)C2=O)cc1 | 15.7 |
| Cc1cc(C)cc(C(=O)Nc2ccncc2)c1 | 14.2 |
| CC(C)OCCCNC(=O)c1c(N)n(/N=C/c2ccccn2)c2nc3ccccc3nc12 | 9.45 |
| COc1cccc(CNC(=O)C2CC(=O)N(C3CCCCC3)C2)c1 (stereo not drawn) | 17 |
| COc1ccc(OCC(=O)Nc2ccc(Cl)cc2)cc1 | 10.5 |
| O=C(/C=C/c1ccc(S(=O)(=O)N2CCOCC2)cc1)OCC(=O)c1ccc([N+](=O)[O-])cc1 | -3.49 |
| Cc1ccc(N2C(=O)N(CC(=O)N(C)Cc3ccccc3)C(=O)C2C)cc1 (stereo not drawn) | -16.6 |
| CCOC(=O)N1CCC(NC(=O)c2ccc(CS(=O)(=O)c3ccc(OC)cc3)o2)CC1 | -5.9 |
| CCOc1ccc(C(=O)NCC(=O)OCC(=O)NC2CCCC2)cc1 | 10.5 |
| CCc1ccc(/C(C)=N/NC(=O)c2ccccn2)cc1 | 13.5 |
